In the supplement of paper PMC12355420:
Structures can show the parent of a compound that is named as a salt. The list shows a part of the results. Rule as the data show it: active = 0.5 or less and inactive = the rest. Most values come without repeats; read them as rough.

How the values were obtained:
Conditions in all cases: 50 µM; 24 h
[1] = system: HeLa VPS33A reporter cells; assay: relative cell viability (CellMask signal) vs DMSO (fraction of DMSO); higher = less cytotoxic;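 also: primary screen of an FDA-approved drug library in HeLa reporter cells in 96-well format, CellMask signal normalized to DMSO-treated wells set as 1, under 0.5 deemed highly cytotoxic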
[2] = system: HeLa VPS33A R498W KI + HA-SDC1-FLAG; assay: relative GAG core protein HA-SDC1 amount per cell number vs DMSO (fraction of DMSO); higher = more SDC1 (GAG core protein);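 also: HA-SDC1 level read out by In-Cell Western staining with an anti-HA antibody against the N-terminal tag, screening FDA-approved library drugs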
[3] = system: HeLa VPS33A KO + NLuc-VPS33A R498W; assay: relative mutant VPS33A R498W amount (NanoLuc luminescence) vs DMSO (fraction of DMSO); HeLa model of a glycosaminoglycan (GAG) storage disease; KI is knock-in and KO knock-out; SDC1 is syndecan 1; higher = higher mutant VPS33A level;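 also: screen of an FDA-approved drug library, NanoLuc luminescence read after lysing the treated cells, taken as a measure of mutant VPS33A protein stability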

| SMILES | relative cell viability [1] | relative GAG core protein HA-SDC1 amount per cell number [2] | relative mutant VPS33A R498W amount [3] |
| --- | --- | --- | --- |
| Cc1cccc(C(C)c2c[nH]cn2)c1C (stereo not given) [Medetomidine HCl] | 1.26 | inactive: 0.818 | 0.723 |
| C[C@H]1O[C@H](O[C@H]2[C@H](O)[C@@H](O)[C@@H](O)[C@H](O)[C@@H]2O)[C@@H](N)C[C@@H]1NC(=N)C(=O)O [Kasugamycin (hydrochloride)] | 1.07 | inactive: 1.03 | 1.07 |
| CC(C)c1c(CN(C)C(C)Cc2ccccc2)n(C)n(-c2ccccc2)c1=O (stereo not given) [Famprofazone] | 1.06 | inactive: 1.02 | 0.45 |
| COc1ccc(C(CN(C)C)C2(O)CCCCC2)cc1 (stereo not given) [Venlafaxine] | 1 | inactive: 1.34 | 1.01 |
| Nc1ccncc1 [4-Aminopyridine] | 0.981 | inactive: 1.01 | 1.01 |
| Cc1cccc([C@H](C)c2c[nH]cn2)c1C [Dexmedetomidine HCl] | 1.21 | inactive: 0.765 | 0.677 |
| CN1[C@@H]2CC[C@H]1C[C@@H](OC(=O)[C@H](CO)c1ccccc1)C2 [Hyoscyamine] | 1.02 | inactive: 0.647 | 1.09 |
| COc1cc2c(cc1OC)[C@@]13CCN4CC5=CCO[C@H]6CC(=O)N2[C@H]1[C@H]6[C@H]5C[C@H]43 [Brucine] | 0.998 | inactive: 0.794 | 1.41 |
| CCC[C@@H]1CC(=O)N([C@@H](CC)C(N)=O)C1 [Brivaracetam] | 1.01 | inactive: 0.815 | 1.21 |
| CN(C)Cc1c[nH]c2ccccc12 [Gramine] | 0.945 | inactive: 0.673 | 0.79 |
